A collection of fitness landscapes (doi:10.1016/j.celrep.2020.107928)
In all, about 81,000 sequences were measured (“one-hybrid fitness for binding NBS DNA”: median about -0.1, highest 2% from about 0.36 on). The list shows a part of the results.

B1: Caulobacter ParB omega fusion; a variant is named by its letters at X, in order, B8GW30 (parent)
chain: MESVVVGEPGMSEGRRGLGRGLSALLGEVDAAPAQAPGEQLGGSREAPIEILQRNPDQPRRTFREEDLEDLSNSIREKGVLQPILVRPSPDTAGEYQIVAGERAWRAAQRAGLKTVPIMVRELDDLAVLEIGIIENVQRADLNVLEEALSYKVLMEKFERTQENIAQTIGKSXSHVANXMRLLXLPDEVQSYLVSGELTAXHARAIAAAADPVALAKQIIEGGLSVRETEALARKAPNLSAGKSKGGRPPRVKDTDTQALESDLSSVLGLDVSIDHRGSTGTLTITYATLEQLDDLCNRLTRGI

Variants of: B1
Assay: one-hybrid fitness for binding NBS DNA (the Noc-binding site; scaled: cognate 1, non-cognate 0); higher = stronger binding
Settings: with NBS DNA site
Method in brief: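 On M9-minus-histidine containing 0.1 mM IPTG and 5 mM 3-AT, E. coli USO cells with a HIS3 reporter, site 19 bp from the promoter, grew 48 hours at 37°C to select Caulobacter ParB libraries randomised at four specificity codons. Plasmids from before and after were Illumina-sequenced, with three replicate libraries pooled and variants under 10 reads left out. Fitness is the log change in variant-to-wild-type read ratio, rescaled against cognate and non-cognate.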

| Variant | one-hybrid fitness for binding NBS DNA |
| --- | --- |
| CFYL | 0.332 |
| IYYG | ≤ 0.2 |
| FPPF | ≤ 0.2 |
| PRAR | 0.219 |
| YEFT | ≤ 0.2 |
| GAHT | ≤ 0.2 |
| THYN | ≤ 0.2 |
| YYCT | ≤ 0.2 |
| DNQR | ≤ 0.2 |
| LQGS | ≤ 0.2 |
| RQCW | ≤ 0.2 |
| DYVI | ≤ 0.2 |
| AGRM | ≤ 0.2 |
| CFIG | ≤ 0.2 |
| DGII | ≤ 0.2 |
| RSCH | ≤ 0.2 |
| TFYR | ≤ 0.2 |
| LPQW | ≤ 0.2 |
| QDHR | ≤ 0.2 |
| HIDC | ≤ 0.2 |
| DTSA | ≤ 0.2 |
| KKWC | ≤ 0.2 |
| TVIW | ≤ 0.2 |
| KNKW | ≤ 0.2 |
| HWSQ | ≤ 0.2 |
| IRQK | ≤ 0.2 |

| Variant | one-hybrid fitness for binding NBS DNA |
| --- | --- |
| WWVS | ≤ 0.2 |
| QCYL | ≤ 0.2 |
| RIRN | ≤ 0.2 |
| CRIY | ≤ 0.2 |
| TRSW | ≤ 0.2 |
| AKTG | ≤ 0.2 |
| ARAR | ≤ 0.2 |
| LMLR | ≤ 0.2 |
| AGRL | ≤ 0.2 |
| FITF | ≤ 0.2 |
| QMPW | ≤ 0.2 |
| YNIS | ≤ 0.2 |
| QHNH | 0.297 |
| NNYS | ≤ 0.2 |
| TEVV | ≤ 0.2 |
| TMWI | ≤ 0.2 |
| TLRL | ≤ 0.2 |
| LHIG | ≤ 0.2 |
| LNEL | ≤ 0.2 |
| FYLW | ≤ 0.2 |
| IRRI | ≤ 0.2 |
| GAQV | ≤ 0.2 |
| YYFS | ≤ 0.2 |
| VKNY | ≤ 0.2 |
| PECN | ≤ 0.2 |
| LCYF | ≤ 0.2 |

| Variant | one-hybrid fitness for binding NBS DNA |
| --- | --- |
| GESL | ≤ 0.2 |
| SFHA | ≤ 0.2 |
| REKV | ≤ 0.2 |
| TFNF | ≤ 0.2 |
| PPPV | ≤ 0.2 |
| CDKT | ≤ 0.2 |
| VNTV | ≤ 0.2 |
| ASSQ | ≤ 0.2 |
| GTPI | ≤ 0.2 |
| QYRN | 0.38 |
| CVNE | ≤ 0.2 |
| SFKH | ≤ 0.2 |
| HILA | ≤ 0.2 |
| GSCP | ≤ 0.2 |
| PTAE | ≤ 0.2 |
| HYMC | ≤ 0.2 |
| LATH | ≤ 0.2 |
| SAQI | ≤ 0.2 |
| QEAI | ≤ 0.2 |
| HAAK | ≤ 0.2 |
| TARM | ≤ 0.2 |
| RGCI | ≤ 0.2 |
| QVAQ | ≤ 0.2 |
| DKHD | ≤ 0.2 |
| QFEN | ≤ 0.2 |
| FGHG | ≤ 0.2 |

| Variant | one-hybrid fitness for binding NBS DNA |
| --- | --- |
| GGWK | ≤ 0.2 |
| RISY | ≤ 0.2 |
| GSGA | ≤ 0.2 |
| YFKT | ≤ 0.2 |
| SAYY | ≤ 0.2 |
| HADG | ≤ 0.2 |
| SDHC | ≤ 0.2 |
| CRFC | ≤ 0.2 |
| RVNP | ≤ 0.2 |
| AWCV | ≤ 0.2 |
| RAQY | ≤ 0.2 |
| HQNY | ≤ 0.2 |
| ERDG | ≤ 0.2 |
| SMCY | ≤ 0.2 |
| TRTQ | ≤ 0.2 |
| RIAN | ≤ 0.2 |
| LMTG | ≤ 0.2 |
| SFNW | ≤ 0.2 |
| GPCL | ≤ 0.2 |
| EMHS | ≤ 0.2 |
| SCDR | ≤ 0.2 |
| DNHR | ≤ 0.2 |
| GMRM | ≤ 0.2 |
| NKTS | ≤ 0.2 |
| QARK | 0.37 |
| HNNL | ≤ 0.2 |

| Variant | one-hybrid fitness for binding NBS DNA |
| --- | --- |
| TYKV | ≤ 0.2 |
| RCVE | ≤ 0.2 |
| DRSI | ≤ 0.2 |
| VNCS | ≤ 0.2 |
| SHGS | ≤ 0.2 |
| RLVP | ≤ 0.2 |
| KTRH | ≤ 0.2 |
| LAIV | ≤ 0.2 |
| SYMR | ≤ 0.2 |
| TRTG | ≤ 0.2 |
| HWQS | ≤ 0.2 |
| CSPV | ≤ 0.2 |
| CPQV | ≤ 0.2 |
| GFRA | ≤ 0.2 |
| WCGY | ≤ 0.2 |
| SITL | ≤ 0.2 |
| IPWE | ≤ 0.2 |
| HKWR | ≤ 0.2 |
| RIEV | ≤ 0.2 |
| QMPS | 0.235 |
| LWYP | ≤ 0.2 |
| QFAM | ≤ 0.2 |
| QYIV | ≤ 0.2 |
| TQTT | ≤ 0.2 |
| PLCV | ≤ 0.2 |
| IQGG | ≤ 0.2 |

| Variant | one-hybrid fitness for binding NBS DNA |
| --- | --- |
| YYIG | ≤ 0.2 |
| RAQH | ≤ 0.2 |
| PQEI | ≤ 0.2 |
| ELSP | ≤ 0.2 |
| TLIT | ≤ 0.2 |
| LIIS | ≤ 0.2 |
| NKSI | ≤ 0.2 |
| NPID | ≤ 0.2 |
| THHF | ≤ 0.2 |
| VFNR | ≤ 0.2 |
| HQNK | ≤ 0.2 |
| QVAF | ≤ 0.2 |
| ASHR | ≤ 0.2 |
| HTTE | ≤ 0.2 |
| MFAG | ≤ 0.2 |
| IALI | ≤ 0.2 |
| EAAS | ≤ 0.2 |
| GREH | ≤ 0.2 |
| DCYN | ≤ 0.2 |
| VDDQ | ≤ 0.2 |
| NSMQ | ≤ 0.2 |
| LYYY | ≤ 0.2 |
| PFYI | ≤ 0.2 |
